The test system of this assay is HSSY-II complex spheroid growth, percent test/control. The assay can be described thus: Anticancer human tumor HSSY-II cell line growth inhibition [Asc].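 Also: spheroids exposed to drug for 7 days before reading.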 As to conditions: stronger effect = lower value. How it is done:
Multicellular complex tumor spheroid response to apoptosis pathway targeting inhibitors Alrizomadlin, Pelcitoclax, and Dasminapant in combination with a variety of drugs and investigational agents in selected tumor cell lines
The MDM2 inhibitor alrizomadlin, the Bcl-2/Bcl-xL inhibitor pelcitoclax, and the IAPs inhibitor dasminapant were evaluated both individually and in combination with standard of care and investigational anticancer small molecules within a complex spheroid model of solid tumors. . Complex spheroids include a stromal component modeled by human endothelial cells (HUVEC) and fibroblasts modeled by human mesenchymal stem cells (MSCs). The concentration ranges selected for each drug and investigational agent were based upon clinically achievable concentrations if the clinical Cmax of the agent was known.
Compounds. The drugs and investigational agents: alrizomadlin (APG-115; NSC831270), pelcitoclax (APG-1252; NSC835773), dasminapant (APG-1387;NSC834197), TAK-243 (NSC785004), copanlisib (NSC809693), olaparib (NSC753686), talazoparib (NSC767125), cobimetinib (NSC 768068), eltanexor (KPT-8602, NSC 794443), abemaciclib (NSC 768073), sotorasib (NSC818433), adagrasib (NSC 831453), MRTX-1133 (NSC 836407), Iadademestat (ORY1001, NSC 806812), and RMC-4630 (NSC839698), were obtained from the NCI Developmental Therapeutics Program Chemical Repository. The FDA-approved anticancer drug set is available from the Developmental Therapeutics Program at https://dtp.cancer.gov/organization/dscb/obtaining/available plates.htm. […] The stock solutions were prepared in dimethyl sulfoxide (DMSO, Sigma-Aldrich, St. Louis, MO, cat. D2650) at 800-fold the tested concentration and stored at -70 degrees C prior to their use. All drugs and investigational agents were tested over a range starting from a high concentration at or near the clinical Cmax and decreasing in half-log increments. If the clinical Cmax for an agent had not been determined, the highest concentration tested was 10 microM.
The patient-derived cancer (PDC) cell lines include five colon adenocarcinomas: 186277-243-T-J2-PDC, 616215-338-R-J1-PDC, 439559-082-T-J2-PDC, 463943-066-T-J2-PDC, and 519858-162-T-J1-PDC; three pancreatic carcinomas: 323965-272-R-J2-PDC, 521955-158-R6-J3-PDC, and 521955-158-R2-J5-PDC; two uterine sarcomas: 327498-152-R-J2-PDC and 993429-296-R-J1-PDC; two rhabdomyosarcomas: 755483-174-R-J1-PDC and 772245-204-R-J1-PDC; two soft tissue sarcomas: 126254-015-R-J1-PDC and 494315-158-R-J1-PDC; two malignant fibrous histiocytomas: 317291-083-R-J1-PDC and 596521-263-R-J1-PDC; two breast carcinomas: 171881-019-R-J1-PDC and 885512-296-R-J2-PDC; and one ovarian carcinoma: 6556581-035-R-J-PDC were obtained from the NCI PDMR, (https://pdmr.cancer.gov). The established cell lines HSSY-2 synovial sarcoma (RRID:CVCL 8719), SYO-1 synovial sarcoma (RRID:CVCL_7146), MPNST malignant peripheral neural sheath tumor were obtained from the Sloan Kettering Institute. The following established cell lines were purchased from the American Type Culture Collection (ATCC, Manassas, VA), Sor the received from the NCI repository:, PANC-1 pancreatic carcinoma (CRL-1469, RRID:CVCL_0480), OVCAR-5 ovarian carcinoma (RRID:CVCL_1628), OVCAR-8 ovarian carcinoma (RRID:CVCL_1629), , MCF-7 breast carcinoma (CRL-12584, RRID:CVCL_0031), MDA-MB-231 breast carcinoma (CRL-12532, RRID:CVCL_0062), NCI-H1876 small cell lung carcinoma (CRL-5902, RRID:CVCL_1503), NCI-H510A small cell lung carcinoma (HTB-184, RRID:CVCL_1565), NCI-H1417 (CRL-5869, RRID:CVCL_1469), and NCI-H196 small cell lung carcinoma (CRL-5823, RRID:CVCL_1509). Dr. Peter Houghton (Greehey Children's Cancer Research Institute, University of Texas Health Science Center, San Antonio, TX) provided Rh-18 rhabdomyosarcoma (RRID:CVCL_1659). Pooled donor human umbilical vein endothelial cells (HUVEC, Lonza, cat. CC-2519) and human mesenchymal stem cells (hMSC, Lonza, cat. PT-2501) were purchased from Lonza (Walkersville, MD).
Cell Culture. […]

Certain results were filed several times, with different values. They are shown here; other results are not. An entry can have further records. Results that share an entry are repeated measurements (runs, samples, wells, individuals or studies). Marks such as (2×) stand for listed records that agree. Marks such as [2022-09] give the month of the run.

On to `Cc1c(S(C)(=O)=O)c(-c2cc(F)cc(N3CCN(c4ccc(NS(=O)(=O)c5ccc(NC(CCN6CCC(C(=O)OCCCP(=O)(O)O)CC6)CSc6ccccc6)c(S(=O)(=O)C(F)(F)F)c5)cc4)CC3)c2)c(-c2ccc(Cl)cc2)n1C(C)C` (centres undefined), for which the viability, T/C is 98.9, 97.8, 106, 107, 105 (2×), 97.5, 115, 96.5, 100, 104, 103, 95.8, 68.9% (compound alone 0.1 µM); 91.5, 92.5, 99.4, 102, 86.8, 92.9, 98.1, 89.6, 107, 104, 96.7, 110, 99.2, 60.6% (compound alone 0.316 µM); 101 (2×), 96.4, 98.6, 95.8, 92.3, 103, 96.3, 97.7, 104, 94.3, 110, 94, 56.1% (compound alone 1 µM); 92.2, 87.1, 98, 92, 104, 91, 102, 99.4, 97.4, 97.1, 90.8, 96.6, 107, 51% (compound alone 3.16 µM); 81.5, 81.1, 86.7, 93.6, 101 (2×), 90.3, 97.5, 107, 89.2, 103, 98.7, 97.1, 38.2% (compound alone 10 µM).
Consider `CNC(C)C(=O)NC1CN(S(=O)(=O)c2cccc(S(=O)(=O)N3CCC4CCC(C(=O)NC(c5ccccc5)c5ccccc5)N4C(=O)C(NC(=O)C(C)NC)C3)c2)CCC2CCC(C(=O)NC(c3ccccc3)c3ccccc3)N2C1=O` (centres undefined), for which the viability, T/C is, setting by setting: (compound alone 0.01 µM) 90.3, 102, 96.3, 92.7, 92.6, 74.1, 76.6, 78.2, 84.1, 84.6, 84.7, 88.6, 84.3% [2022-10] and 101% [2022-11]; (compound alone 0.1 µM) 87.7, 96.5, 98.4, 88.6, 71.6, 75.5, 85.9, 72.4, 84, 98.6, 93.8, 86.2, 89% [2022-10] and 102% [2022-11]; (compound alone 0.316 µM) 90.8, 93.3, 84.1, 102, 85.6, 84.2, 79, 82.8, 92.3, 93.7, 80.8, 90.5, 74.1% [2022-10] and 101% [2022-11]; (compound alone 1 µM) 85.5, 84.6, 91.7, 78, 70.7, 91.1, 82.5, 87.6, 97, 86.2, 85.2, 86.8, 79.9% [2022-10] and 98.7% [2022-11].

These data come from PubChem BioAssay AID1963444 (Molecular Pharmacology Branch, DTP, NCI, 2024).
